Earlier results, collected in PubChem BioAssay AID1259410 (Chemical Carcinogenesis Research Information System (CCRIS), 2018).
The source gives many values for each of these; only a part stands here.

System: rodent tumor promotion studies, tumor incidence
Assay: CCRIS tumor promotion studies
Text: The CCRIS database contains chemical records with carcinogenicity, mutagenicity, tumor promotion, and tumor inhibition test results. It was developed by the National Cancer Institute (NCI). Data are derived from studies cited in primary journals, current awareness tools, NCI reports, and other sources. Test results have been reviewed by experts in carcinogenesis and mutagenesis.
CCRIS provides historical information from the years 1985 - 2011. It is no longer updated.
This is an archive assay for CCRIS tumor promotion studies.

Compound: CCCCCCCCCCCCCC(=O)O[C@@H]1[C@@H](C)[C@@]2(O)[C@@H](C=C(CO)C[C@]3(O)C(=O)C(C)=C[C@@H]23)[C@@H]2C(C)(C)[C@]12OC(C)=O
- outcome (Carcinogen: DIMETHYLARSINOUS IODIDE [676-75-5], Doses [Carcinogen]: 10 MG IN ACETONE ONCE, Doses [Promoter]: 10 NMOL 2X WEEKLY FOR 25 WKS (STUDY DURATION: 25 WKS), Route [Carcinogen]: SKIN, Route [Promoter]: SKIN, Species: MOUSE, Strain/Sex: HR-1,HAIRLESS/FEMALE (10/GROUP)): skin-positive
- outcome (Carcinogen: MANCOZEB, 8018-01-7, Carcinogen: MANCOZEB, 8018-01-7, Doses [Carcinogen]: 0, 100 MG/KG BW IN 200 µL DMSO ADMINISTERED INTRAPERIONEALLY ON DAY 14 OF GESTATION, Doses [Carcinogen]: 0, 100 MG/KG BW IN 200 µL DMSO ADMINISTERED INTRAPERIONEALLY ON DAY 14 OF GESTATION, Doses [Promoter]: 0, 5 UG 3/WK AFTER 6 WK OF AGE, Doses [Promoter]: 0, 5 UG 3/WK AFTER 6 WK OF AGE, Route [Carcinogen]: TRANSPLACENTAL, Route [Promoter]: DERMAL, Species: MOUSE, Strain/Sex: SWISS/FEMALE): skin: tumor
- outcome (Carcinogen: MANCOZEB, 8018-01-7, Carcinogen: MANCOZEB, 8018-01-7, Doses [Carcinogen]: 0, 100 MG/KG BW IN 200 µL DMSO ADMINISTERED INTRAPERIONEALLY ON DAY 14 OF GESTATION, Doses [Carcinogen]: 0, 100 MG/KG BW IN 200 µL DMSO ADMINISTERED INTRAPERIONEALLY ON DAY 14 OF GESTATION, Doses [Promoter]: 0, 5 UG 3/WK AFTER 6 WK OF AGE, Doses [Promoter]: 0, 5 UG 3/WK AFTER 6 WK OF AGE, Route [Carcinogen]: TRANSPLACENTAL, Route [Promoter]: DERMAL, Species: MOUSE, Strain/Sex: SWISS/MALE): skin: tumor
- outcome (Carcinogen: MANCOZEB, 8018-01-7, Carcinogen: MANCOZEB, 8018-01-7, Doses [Carcinogen]: 100 MG/KG BW IN 50 µL DMSO 3/WK FOR 3 WK, Doses [Promoter]: 0.5 UG IN 100 µL ACETONE 2/WK FOR 12 WK BEGINNING 1 WK POST CARCINOGEN (STUDY DURATION: 16 WK), Route [Carcinogen]: DERMAL, Route [Promoter]: DERMAL, Species: MOUSE, Strain/Sex: SWISS/FEMALE): skin: papilloma
- outcome (Carcinogen: N-METHYLDIBENZO[C,G]CARBAZOLE, 27093-62-5, Carcinogen: N-METHYLDIBENZO[C,G]CARBAZOLE, 27093-62-5, Doses [Carcinogen]: 200 NMOL IN 50 µL ACETONE ONCE, Doses [Promoter]: 0, 2 UG IN 50 µL ACETONE 2/WK FOR 28 WK BEGINNING IMMEDIATELY AFTER CARCINOGEN TREATMENT (STUDY DURATION: 28 WK), Doses [Promoter]: 0, 2 UG IN 50 µL ACETONE 2/WK FOR 28 WK BEGINNING IMMEDIATELY AFTER CARCINOGEN TREATMENT (STUDY DURATION: 28 WK), Route [Carcinogen]: DERMAL, Route [Promoter]: DERMAL, Species: MOUSE, Strain/Sex: ICR/FEMALE): skin: papilloma
- outcome (Carcinogen: NIVALENOL [23282-20-4], Doses [Carcinogen]: 5 UG 3/WK IN WK 1, 3 UG 3/WK IN WKS 7, 13, 19, 25, AND 31, 2 UG 3/WK IN WKS 37, 43, 49, AND 55 (STUDY DURATION: 60 WKS), Doses [Carcinogen]: 5 UG 3/WK IN WK 1, 3 UG 3/WK IN WKS 7, 13, 19, 25, AND 31, 2 UG 3/WK IN WKS 37, 43, 49, AND 55 (STUDY DURATION: 60 WKS), Doses [Promoter]: 2 UG 3/WK FOR 6 WKS IN BETWEEN CARCINOGEN TREATMENTS (STUDY DURATION: 60 WKS), Route [Carcinogen]: DERMAL, Route [Promoter]: DERMAL, Species: MOUSE, Strain/Sex: BALB/C/MALE, FEMALE, Strain/Sex: BALB/C/MALE, FEMALE): skin: papillomas and carcinomas
- outcome (Carcinogen: NIVALENOL [23282-20-4], Doses [Carcinogen]: 5 UG 3/WK IN WKS 1, 7, 13, 19, 25, 31, 37, 43, 49, AND 55 (STUDY DURATION: 60 WKS), Doses [Promoter]: 2 UG 3/WK FOR 6 WKS IN BETWEEN CARCINOGEN TREATMENTS (STUDY DURATION: 60 WKS), Route [Carcinogen]: DERMAL, Route [Promoter]: DERMAL, Species: MOUSE, Strain/Sex: BALB/C/MALE, FEMALE, Strain/Sex: BALB/C/MALE, FEMALE): skin: papillomas and carcinomas
- outcome (Carcinogen: PHENOXYOXIRANE, 79526-11-7, Carcinogen: PHENOXYOXIRANE, 79526-11-7, Doses [Carcinogen]: 5 UMOL IN 0.2 ML ACETONE/DMSO FOR 32 WK, Doses [Promoter]: 15 NMOL IN 0.1 ML ACETONE FOR 32 WK (STUDY DURATION: 32 WK), Route [Carcinogen]: DERMAL, Route [Promoter]: DERMAL, Species: MOUSE, Strain/Sex: ICR/FEMALE): skin: papilloma
- outcome (Carcinogen: PHENYL VINYL ETHER, 766-94-9, Carcinogen: PHENYL VINYL ETHER, 766-94-9, Doses [Carcinogen]: 5 UMOL IN 0.2 ML ACETONE/DMSO FOR 32 WK, Doses [Promoter]: 15 NMOL IN 0.1 ML ACETONE FOR 32 WK (STUDY DURATION: 32 WK), Route [Carcinogen]: DERMAL, Route [Promoter]: DERMAL, Species: MOUSE, Strain/Sex: ICR/FEMALE): skin: papilloma
- outcome (Carcinogen: Sodium arsenite, 7781-46-5, Carcinogen: Sodium arsenite, 7781-46-5, Doses [Carcinogen]: 0, 42.5, 85 ppm to dams on gestational days 8-18, Doses [Promoter]: 2 ug twice/wk, wks 4025 of life, Doses [Promoter]: 2 ug twice/wk, wks 4025 of life, Route [Carcinogen]: Drinking water, days 8-18 of gestation (dams), Route [Carcinogen]: Drinking water, days 8-18 of gestation (dams), Route [Promoter]: Dermal (to offspring), Species: Mouse, Strain/Sex: C3H/HeNCr, (25 Male and female offspring/Group of dams exposed to sodium arsenite), Strain/Sex: C3H/HeNCr, (25 Male and female offspring/Group of dams exposed to sodium arsenite)): skin: negative males: liver: hepatocellular carcinomas, lung: tumors females: ov
